Several values for one entry are separate records, joined by “and”; a condition that tells them apart may be missing. Equal values may be shown once. The whole screen tested about 16,000 compounds, of which about 40 (0.2%) were called active. Not shown: some 1% with an inconclusive outcome. The call rests on the fitted dose curve; in most records, active means well fitted activation curve with a large enough effect; inconclusive means small, poorly fitted or top-dose-only effect, or another doubt; inactive means no such curve, though single readings can be large or run the other way. This is one part of the list. Residues, ends and D or L forms follow the SMILES beside them.
On the % scale 0 is the no-effect control and ±100 the full control effect.

The target of this assay is Rap guanine nucleotide exchange factor 4 (Homo sapiens) (UniProt Q8WZA2). The experiment in a line: Validation qHTS for agonist of cAMP-regulated guanine nucleotide exchange factor 4 (EPAC2).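 Further: exchange makes BODIPY-GDP fluorescence drop when released from Rap1B; series mostly up to about 150 µM.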 The conditions noted are these: EPAC2 Rap1B BODIPY-GDP exchange, fluorescence; activation: active compounds read high. The essentials: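 Fluorescent exchange assay: 100 nM EPAC2 with 250 nM RAP1B-BODIPY-GDP and 50 uM GDP; compound added, 5 min at room temperature, then read (ex 480/em 540 nm) every 5 min for 30 min. Normalized to 6.5 mM cAMP agonist control.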
UniProt Q8WZA2, sequence (Q8WZA2 whole entry, looked up): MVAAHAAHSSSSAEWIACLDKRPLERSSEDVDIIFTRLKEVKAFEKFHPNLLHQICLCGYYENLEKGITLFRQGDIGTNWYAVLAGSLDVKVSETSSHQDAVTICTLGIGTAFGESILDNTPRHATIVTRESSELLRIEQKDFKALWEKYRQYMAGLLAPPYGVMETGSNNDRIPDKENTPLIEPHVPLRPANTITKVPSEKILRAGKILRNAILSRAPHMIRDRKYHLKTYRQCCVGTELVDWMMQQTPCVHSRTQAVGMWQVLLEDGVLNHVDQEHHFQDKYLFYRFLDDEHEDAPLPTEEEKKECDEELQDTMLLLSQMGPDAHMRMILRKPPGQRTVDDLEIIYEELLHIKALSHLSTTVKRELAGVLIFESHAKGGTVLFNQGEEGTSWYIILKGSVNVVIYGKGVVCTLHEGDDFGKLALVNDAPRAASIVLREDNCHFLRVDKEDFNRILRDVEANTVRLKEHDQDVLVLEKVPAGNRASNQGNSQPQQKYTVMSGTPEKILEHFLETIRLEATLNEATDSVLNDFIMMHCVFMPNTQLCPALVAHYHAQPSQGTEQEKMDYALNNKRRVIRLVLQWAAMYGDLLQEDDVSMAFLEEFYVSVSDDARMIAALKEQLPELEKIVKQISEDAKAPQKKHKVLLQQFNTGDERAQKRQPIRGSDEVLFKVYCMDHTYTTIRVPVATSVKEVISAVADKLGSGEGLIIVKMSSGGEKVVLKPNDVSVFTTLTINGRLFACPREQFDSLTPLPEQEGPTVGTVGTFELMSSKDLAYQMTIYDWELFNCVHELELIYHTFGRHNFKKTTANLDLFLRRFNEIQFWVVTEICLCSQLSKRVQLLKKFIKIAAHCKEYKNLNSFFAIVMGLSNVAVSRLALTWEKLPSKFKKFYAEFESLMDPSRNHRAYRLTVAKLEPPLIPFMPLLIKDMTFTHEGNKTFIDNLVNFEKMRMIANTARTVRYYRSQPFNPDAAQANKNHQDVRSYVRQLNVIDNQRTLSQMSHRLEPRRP
In the case of `COc1ccccc1C(=O)N[C@@H]1c2ccccc2C2(CCN(Cc3cccnc3)CC2)[C@H]1O`, the activation is inactive: -2.5%.

Turning to `CCCCCc1ccc(-c2cn(Cc3ccc4ccccc4c3)nn2)cc1`, the activation is inactive: -18.9%.

On to `CC(=O)Nc1cc(C(=O)N2CCSCC2)cc2ncn(CCc3ccccn3)c12`, for which the activation is inactive: -5.96%.

As to `Cc1ncc2c(c1CNC(=O)c1ccc3c(c1)OCO3)CCN(C(=O)c1csc3c1CCCC3)C2`, the activation is inactive: 0.836%.

`CCCCCCCCCCCCCCCCCC(=O)OC[C@@H](O)[C@H]1OC[C@H](O)[C@H]1O`: the activation is inactive: -39.6%.

As for `N=c1ccn2c(n1)O[C@H]1[C@H](O)[C@@H](CO)O[C@H]12`, the activation is inactive: -2.62% and inactive: -11.4%.

On to `CC(=O)Oc1c(C)cccc1C(=O)O`, for which the activation is inactive: -9.7%.

For `CN(C)c1nc(-c2ccc3c(c2)OCO3)nc2ccccc12`, the activation is inactive: 1.9%.

With `CCCCCCCC/C=C\CCCCCCCC(=O)NCc1ccc(O)c(OC)c1`, the activation is inactive: -71.8% and inactive: -45.2%.

On to `COc1ccc(C(=O)N2CCC[C@@]3(CCN(Cc4nccs4)C3)C2)cc1`, for which the activation was inactive: -10.6%.

Consider `CCN(Cc1ccncc1)Cc1ccc2c(c1)CN(C(=O)c1ccccc1-n1cccn1)CCO2`, for which the activation was inactive: -10.9%.

As for `O=c1c(-c2cc(F)cc(F)c2)nc2cnc(N3CCOCC3)nc2n1CCc1ccccc1`, the activation was inactive: -4.83%.

On to `COCCn1c(=O)c(C)nc2cnc(Nc3cccc(OC)c3)nc21`, for which the activation is inactive: -12.1%.

On to `CC(=O)Oc1cc(C(F)(F)F)ccc1C(=O)O`, for which the activation is inactive: -12.5%.

For `CC(C)Cc1ccc([C@H](C)C(=O)O)cc1`, the activation is inactive: -9.96% and inactive: -10.2%.

As to `COCC(=O)Nc1cc(C(=O)N2CCCC2c2nccs2)c2c(c1)nc(-c1ccncc1)n2C` (stereo not drawn), the activation is inactive: -1.76%.

Regarding `COc1cccc(-c2cncnc2Nc2ccc(F)cc2)c1`, the activation was inactive: -16.3%.

`CS(=O)(=O)NCc1ccccc1Br`: the activation was inactive: -10.2%.

For `COC(=O)C[C@H]1c2cc(F)cc(F)c2S(=O)(=O)N1C1CCN(Cc2ccccc2)CC1`, the activation is inactive: -16.4%.

As to `COc1ccc(-n2c(=O)c(C)nc3cnc(OC)nc32)cc1`, the activation is inactive: -13.5%.

As to `O=C1CC[C@H](C(=O)O)N1`, the activation was inactive: 9.34%.

`COc1ccc(CCN(C)Cc2cc(-c3cncnc3)ccc2O)cc1OC`: the activation was inactive: -2.26%.

In the case of `O=C(c1ccco1)N1CCC2(CCCN(C(c3ccccc3)c3ccccc3)C2)CC1`, the activation was inactive: -45.8%.

`CNc1ncncc1-c1c(C)noc1C`: the activation was inactive: -1.23%.

On to `N[C@H](C(=O)O)C1[C@H](C(=O)O)[C@H]1C(=O)O` (stereo partly drawn), for which the activation was inactive: -6.99%.

For the compound `O=C(O)c1cc(=O)c2cccc(O)c2[nH]1`, the activation was inactive: 3.38% and inactive: -8.41%.

With `O=c1[nH]cc(F)c(=O)[nH]1`, the activation was inactive: 3.36% and inactive: 8.2% and inactive: -16.6%.

Take `CCOc1cc(NC(C)=O)ccc1C(=O)OC`: the activation was inactive: -28.6%.

In the case of `COc1ccc(CNc2nc(-c3cccnc3)nc3ccccc23)c(OC)c1`, the activation was inactive: 13.6%.

With `Cc1c(C(=O)NCC2(N3CCOCC3)CCCCCC2)cnn1-c1nccc(-c2ccccc2F)n1`, the activation was inactive: -12.2%.

On to `C[C@]12C=CC(=O)C=C1CC[C@@H]1[C@@H]2[C@@H](O)C[C@@]2(C)[C@H]1CC[C@]2(O)C(=O)CO`, for which the activation is inactive: -9.45%.

As for `COc1cccc(CN2C(=O)NC(C)(C3CCN(Cc4ccc(C)o4)CC3)C2=O)c1OC` (stereo not drawn), the activation was inactive: -11.1%.

Regarding `Cc1c(C(=O)NC2CCCCCC2)sc2ncnc(NCC3CCCO3)c12` (stereo not drawn), the activation is inactive: -17.3%.

For the compound `COc1ccc(CN2C[C@H](C)[C@@H](CC(=O)NCc3ccccc3)C2=O)cc1`, the activation was inactive: -27.6%.

As for `CC1(C)C2CC[C@@]1(C)C(=O)C2`, the activation is inactive: -8.45%.

As for `C=C1C[C@]23CC[C@H]4C(CO)(CO)C[C@@H](O)C[C@@]4(C)[C@@H]2CC[C@H]1C3`, the activation was inactive: -10.7%.

Consider `Nc1ccc(O)c(C(=O)O)c1`, for which the activation is inactive: 9.78%.

Take `COc1ccc(Oc2ncc3nc(-c4ccc(F)cc4)c(=O)n(C)c3n2)cc1`: the activation was inactive: -21.3%.

For the compound `NCCCCC(NC(CCc1ccccc1)C(=O)O)C(=O)N1CCCC1C(=O)O` (stereo not drawn), the activation is inactive: -1.84%.

Regarding `CCC(=O)O[C@H](CC(=O)O)C[N+](C)(C)C`, the activation was inactive: -20.8%.

On to `CCOC(=O)C[C@H]1c2ccc(C(F)(F)F)cc2S(=O)(=O)N1c1cccc(OC)c1`, for which the activation was inactive: -41.3%.

Consider `Cc1cc(OC(=O)c2c(C)cc(O)cc2O)cc(O)c1C(=O)O`, for which the activation was inactive: -15.8% and inactive: -10.5%.

For `O=C(c1ccncc1)N1CCC2(CC1)CN(c1cccc(-c3ccccc3)c1)C2`, the activation is inactive: 8.96%.

For the compound `CCN(CC)CCOC(=O)C1(c2ccc([N+](=O)[O-])cc2)CCCC1`, the activation was inactive: -21.4% and inactive: 2.58%.

As for `Cc1nc2cc(NC(=O)[C@@H]3C[C@@H](Sc4ccccn4)CN3Cc3ccccc3C)ccc2s1`, the activation was inactive: -7.02%.

Regarding `CO[C@@]1(NC(=O)C2SC(=C(C(N)=O)C(=O)O)S2)C(=O)N2C(C(=O)O)=C(CSc3nnnn3C)CS[C@@H]21` (stereo partly drawn), the activation is inactive: -26.6%.

As to `CN(C)c1ncc2nc(-c3cc(F)cc(F)c3)c(=O)n(Cc3ccc(F)cc3)c2n1`, the activation is inactive: -10.7%.

As for `COc1ncccc1C(=O)N1CCOc2ccc(C(O)C(c3ccccc3)c3ccccc3)cc2C1` (stereo not drawn), the activation was inactive: -6.68%.

Consider `NC(=O)C1=CN(C2OC(COP(=O)(O)OP(=O)(O)OC[C@H]3O[C@@H](n4cnc5c(N)ncnc54)[C@H](OP(=O)(O)O)[C@@H]3O)C(O)C2O)C=CC1` (stereo partly drawn), for which the activation is inactive: -18.5%.

On to `Cc1c(C)c2c(c(C)c1OC(=O)c1cccnc1)CC[C@@](C)(CCC[C@H](C)CCC[C@H](C)CCCC(C)C)O2`, for which the activation is inactive: 4.41%.

Regarding `CO[C@]1(C2=NCCN2)COc2ccccc2O1`, the activation is inactive: -24.2%.

As to `CC(=O)N[C@@H](CC(=O)O)C(=O)N[C@@H](CCC(=O)O)C(=O)O` (Ac-Asp-Glu-OH), the activation is inactive: -16.2%.

In the case of `Cc1cc(C(C)(C)CC(C)(C)C)ccc1OCCOCC[N+](C)(C)Cc1ccccc1`, the activation is inactive: -20.8%.

Consider `CCC(C)[C@H]1COCCS(=O)(=O)N1Cc1ccc(C)cc1` (stereo partly drawn), for which the activation is inactive: -30.2%.

In the case of `Cc1cc(NC(=O)C2=C(O)c3ccccc3S(=O)(=O)N2C)no1`, the activation is inactive: -8.9%.

Turning to `CC(C)(CO)NC(=O)c1cnn(-c2nccc(-c3ccc4c(c3)OCO4)n2)c1C1CC1`, the activation was inactive: -10.7%.

Consider `CC(CCC(=O)O)C1CCC2C3CC[C@H]4CC(O)CC[C@@]4(C)C3CC(O)[C@]12C` (stereo partly drawn), for which the activation was inactive: -3.15%.

`CN(C)c1ncc2nc(-c3ccc(Cl)cc3)c(=O)n(C3CC3)c2n1`: the activation was inactive: 0.968%.

For `Cn1cccc1C(=O)N1CCC2(CC1)CN(c1ccccn1)C2`, the activation was inactive: -9.92%.

Regarding `CN(C)c1ccc(-c2nc(-n3ccnc3)c3ccccc3n2)cc1`, the activation was inactive: -31.6%.

For the compound `CCCCCCCCCCCCCCCCCCOC[C@H](COP(=O)([O-])OCC[N+](C)(C)C)OC`, the activation is inactive: -10.1% and inactive: -33.1%.

Regarding `CC(C)[C@@H]1[C@H]2CC[C@H](C2)[C@H]1N`, the activation was inactive: -21.3%.

Regarding `O=c1[nH]c(=O)n([C@@H]2O[C@H](CO)[C@@H](O)[C@H]2O)cc1F`, the activation is inactive: -5.6%.

For `COc1ccccc1CN1CC[C@@]2(CCCN(S(C)(=O)=O)C2)C1`, the activation is inactive: -13.6%.

As to `COc1ccccc1CN1CC[C@@]2(CCCN(C(=O)c3ccncc3)C2)C1`, the activation was inactive: -5.79%.

As for `COC(=O)N1CCC[C@@]2(CCN(C(=O)NC(C)C)C2)C1`, the activation was inactive: -10.8%.

With `CC1(C)C(C=C(Cl)Cl)C1C(=O)OCc1cccc(Oc2ccccc2)c1` (stereo not drawn), the activation is inactive: -13.7%.

On to `OC(c1ccc2c(c1)CN(Cc1cccn1-c1cccnc1)CCO2)C1CCCCC1` (stereo not drawn), for which the activation is inactive: -24.3%.

On to `COc1cc2c(cc1O)CC[C@@H]1[C@@H]2CC[C@]2(C)[C@@H](O)CC[C@@H]12`, for which the activation was inactive: -40.8%.

For the compound `O=C(c1csnn1)N1CCC2(CC1)CN(c1ncccn1)C2`, the activation is inactive: 7.71%.

For the compound `CNC(=O)[C@H]1O[C@@H](n2cnc3c(NCc4ccc(N)cc4)ncnc32)[C@H](O)[C@@H]1O`, the activation was inactive: -9.89% and inactive: -28.8%.

Consider `O=c1[nH]c(=O)c2nc(Br)n(C3OC(CO)C(O)C3O)c2[nH]1` (stereo not drawn), for which the activation is inactive: -3.94%.

As to `COc1ccc(NC(=O)N2CCCC3(CCN(C(=O)c4csnn4)CC3)C2)cc1`, the activation is inactive: -27.3%.

Consider `O=c1cnc2cnc(N3CCNCC3)nc2n1Cc1ccc(F)cc1`, for which the activation was inactive: -16.9%.

Take `COc1ccccc1-c1ccnc(-n2ncc(C(=O)N3CCN(C(C)C)CC3)c2-c2ccco2)n1`: the activation was inactive: -1.32%.

Turning to `O=C(O)[C@H](O)[C@@H](O)[C@H](O)[C@H](O)CO`, the activation is inactive: -31.8% and inactive: 10.9%.

As to `c1ccc(-c2csc(-c3nc4ccccc4[nH]3)n2)cc1`, the activation was inactive: 13.4%.

Consider `CN(CCc1ccc(Cl)c(Cl)c1)CC(O)COc1ccc(NS(C)(=O)=O)cc1` (stereo not drawn), for which the activation was inactive: 8.79%.

Take `CSc1ccc(-c2ccc3c(c2)CC(CNC(=O)Cn2nc(C)nc2C)O3)cc1` (stereo not drawn): the activation was inactive: -21.8%.

Regarding `COc1cccc(-c2nc(NCc3ccccc3)c3ccccc3n2)c1`, the activation was inactive: -8.68%.

With `C[C@@]12CCC3c4ccc(OS(=O)(=O)O)cc4CCC3C1CCC2O` (stereo partly drawn), the activation was inactive: -2.96%.

For the compound `O=C1CCN(CCc2ccccc2)CCN1CCSc1ccccc1`, the activation is inactive: -20.9%.

As to `COc1ccc(-c2coc3ccc(OC4OC(COC(C)=O)C(OC(C)=O)C(OC(C)=O)C4OC(C)=O)cc3c2=O)cc1` (stereo not drawn), the activation was inactive: -5.23%.

Values taken from PubChem BioAssay AID1645887 (National Center for Advancing Translational Sciences (NCATS), 2021).
